Assay results taken from US9750727B2 (priority 2010, dated 2017).

Tested on: peritoneal macrophages (pMP)
Design: species or system mice
Conditions: mouse, in vivo

For `NNC(=O)c1ccncc1` [Isoniazid, isonicotinic acid hydrazide], the “decrease of pMP activity” value was 1.2 fold.
For `CC[C@@H](CO)NCCN[C@@H](CC)CO` [Ethambutol, ethambutol], the “decrease of pMP activity” value was 1.3 fold.
